# Data taken from ChEMBL document CHEMBL4888484, “Replenishing the malaria drug discovery pipeline: Screening and hit evaluation of the MMV Hit Generation Library 1 (HGL1) against asexual blood stage Plasmodium falciparum ,using a nano luciferase reporter read-out” (2022).
# In all, about 150,000 compounds went through this assay and about 540 (0.36%) showed an effect of 50% or more. This is one part of the list.
# System: Plasmodium falciparum
# Experiment: Primary screen in NF54 nanoGlo assay, in single point, at 2uM, 72h; a lower Z score goes with more inhibition
# Assay type: functional, Erythrocyte
# Details: timepoint 72 hour
Structure (SMILES),% Inhibition,Z score
Cc1cc(Oc2ncccn2)ccc1NC(=O)c1c(C)oc(C)c1C,-1%,0.19
O=C(CCC(F)(F)F)N1CC[C@@]2(CCCN(CCCc3ccccc3)C2)C1,-6%,0.76
COc1cc(C)c(CN2CC(N3CCCCC3)C2)cc1C,-5%,0.86
Clc1ccc(-c2cc3c(N4CCN(C5CCCCC5)CC4)nccn3n2)cc1,5%,-0.71
Cc1ccc(COC2C[C@](OCc3ccc(F)cc3F)(C(=O)NC(C)C)C[C@H]3OC(C)(C)O[C@@H]23)cc1 (stereo not given in full),-2%,0.4
Cc1cc(NC(=O)[C@H](C)N(C)Cc2cnn(C)c2)on1,-7%,0.89
Cc1n[nH]cc1Nc1nc(C(C)(C)C)ns1,3%,-0.46
Cc1n[nH]c(C)c1CNCc1ccc(-c2ccn(Cc3c(C)noc3C)n2)o1,-19%,2.28
CC1CCCC(NC(=O)CS(=O)(=O)N2CCN(C)CC2)C1C (stereo not given),-10%,1.99
O=C(c1cc2ccccc2s1)N1C2CCC1CC(n1ccnn1)C2 (stereo not given),-8%,1.24
Cc1ccc(S(=O)(=O)N2CCC3(CC2)NC(=O)c2ccccc2N3)cc1Cl,-8%,0.83
O=C(CCCn1nc(-c2ccccc2)c2ccccc21)N1CCc2ccccc2C1,-5%,0.86
COc1c[nH]c(C(=O)N2CCC(F)CC2)cc1=O,-5%,0.59
Oc1ccc2c(c1)Oc1ncn3nc(COc4ccc(Cl)cc4)nc3c1[C@H]2c1ccccc1,-7%,0.73
COc1cc(-c2nc(Cn3ccnc3)no2)cc(OC)c1OC,-3%,0.63
CC(=O)N1CCc2cc(NCc3c[nH]c4ccccc34)ccc21,5%,-0.77
Cc1cc(C)nc(-n2cc(C(=O)N3CCC=C(F)C3)c(C(C)C)n2)n1,-4%,0.86
CC(C)CNC(=O)[C@@H]1CCN(S(C)(=O)=O)c2cc(Cl)ccc2O1,8%,-1.31
COc1cccc(OC[C@@H](O)CNc2nncc(-c3cccc(OC)c3)n2)c1,-3%,0.34
CC(C(=O)NC1CCCCC1)N1CCCC(c2cc(C(N)=O)[nH]n2)C1 (stereo not given),-10%,1.4
Cc1ccc(F)cc1C(=O)N1CCC2(CCC(=O)N(C3CC3)C2)CC1,-7%,0.84
O=C1NCCN(Cc2cccc(F)c2F)[C@H]1CC(=O)N1CCC(O)(c2ccccn2)CC1,-15%,1.75

Structure (SMILES),% Inhibition,Z score
CC(=O)N1C[C@H](O)C[C@@H]1c1nc(-c2cc3ccccc3o2)no1,-2%,0.34
Cn1nc2c(c1CNC(=O)COc1ccc(Cl)cc1)CCC2,15%,-1.95
Cc1c(C(=O)NC2CC2)cnn1-c1cc(-c2nc(C3CC3)no2)ccn1,-20%,3.18
CC1CN(CCCNC(=O)c2cn[nH]c2)CC(C)O1 (stereo not given),-4%,0.78
CCOc1cc(CNc2ncnc3nc[nH]c23)ccn1,-4%,0.64
COc1ccc(CN2CCNC(=O)C23CCCC3)c(F)c1,-12%,1.76
OCc1cn(CCc2ccccn2)nn1,10%,-1.29
O=C(C[C@H]1COc2ccccc2NC1=O)Nc1ccc2c(c1)OCCO2,-6%,0.66
CC(OCC1CCCO1)C(=O)NC1CCc2cn[nH]c2C1 (stereo not given),-6%,0.64
Cc1nc(CNC(=O)NCCOc2ccc(F)cc2F)sc1C,-14%,1.46
COCCNC(=O)[C@H](C)N(c1nc(-c2ccc(C)cc2)cs1)c1ccccc1Cl,-15%,2.88
CC(C)NC(=O)C[C@@H]1O[C@H](CNC(=O)Nc2ccccc2)[C@@H](O)[C@H]1O,31%,-3.45
Cc1ccc2c(c1)C1NC(=O)NC(C)(O2)C1C(=O)Nc1ccc(Cl)cc1 (stereo not given),36%,-4.11
O=C(C[n+]1cn(NCc2ccco2)cn1)c1ccc(-c2ccccc2)cc1,-10%,1.89
C#CCC[C@H](O)CNCc1cccc(Br)c1,-7%,0.98
Cc1ccc(NC(=O)CC(C)(C)CC(=O)O)cc1,0%,-0.02
COCc1cccc(CC(=O)NCc2c[nH]c(=O)[nH]2)c1,-12%,2.01
CCCOc1nccnc1NC1CCN(C(=O)c2cccs2)CC1,2%,-0.35
Cn1ncc(C2CCC2)c1C(=O)NCCc1ncn[nH]1,4%,-0.57
COc1ccccc1CNC(=O)Cn1nc(C(=O)N2CCOCC2)cc1C,0%,0.03
CO[C@H]1CCN(C(=O)Cc2coc(-c3ccc(F)cc3)n2)CC1(C)C,-11%,1.46
O=C1NCC2(CCN(Cc3c[nH]cn3)CC2)Oc2ccccc21,-5%,0.85

Structure (SMILES),% Inhibition,Z score
CN(Cc1ccccc1)c1nc2c(c(Oc3cccc(F)c3)n1)CN(C(=O)c1ccc(F)cc1F)CC2,0%,0.05
NS(=O)(=O)c1cccc(NC(=O)CCCCc2nc3ccccc3s2)c1,-21%,3.03
CC(=O)N[C@H]1C[C@@H](c2cc(C)c(C)cc2C)O[C@@H](c2cccc(O)c2)C1,-7%,1.12
Cc1c(NC(=O)N2CCCCC2)c(=O)n(-c2ccccc2)n1C,-8%,1.45
O=C(N[C@H]1CCc2cn[nH]c2C1)N1CCC(Cc2ccccc2)CC1,-2%,0.33
C[C@@H](c1ccccn1)N(C)CC(C)(CO)CO,-11%,1.71
CC(C)NC(=O)N1CCN(c2cccc(C(F)(F)F)c2)C(=O)[C@@H]1C,1%,-0.25
COC(=O)c1ncccc1NC(=O)Cc1noc2ccccc12,-6%,0.75
FC(F)(F)CCc1noc([C@H]2CCc3nnc(-c4ccccc4)n3C2)n1,-1%,0.13
COc1c(C)cc(-c2ccc[nH]c2=O)cc1C,6%,-0.95
c1cc2c(cc1CNCc1ccc3c(c1)OCO3)OCO2,-3%,0.3
Cn1c(=O)[nH]c(=O)c2cc(S(=O)(=O)NC3CCCCC3)cnc21,10%,-1.61
O=C1NC(=O)C2(CCN(C(=O)[C@@H]3Cc4cc(Cl)ccc4O3)CC2)N1,2%,-0.31
Cc1cc2ncc(NC(=O)c3cccc(C(F)(F)F)c3)cn2n1,-18%,2.29
CCOC1CC(O)(CNC(=O)c2cccc(=O)[nH]2)C1(C)C (stereo not given),-4%,0.64
COCCCN(C(=O)c1ccc(NC(C)=O)cc1)C1(C(=O)NCc2ccccc2)CCN(C(C)=O)CC1,0%,-0.07
CNC(=O)c1nc(-c2cccc(OC)c2OC)n[nH]1,-18%,1.58
c1cc(-c2noc([C@H]3CNCC34CCCCC4)n2)co1,-7%,1.36
COCCNC(=O)c1cn(C)c2c(c(C)nn2-c2ccc(F)cc2)c1=O,-1%,0.1
O=C(N[C@H]1CCOC[C@@H]1O)c1ccncc1F,-9%,0.99
Cc1ccc(-c2ccc(C(=O)NCCCc3nnn[nH]3)cc2)o1,-8%,0.79
CCc1ccc(C(=O)NC[C@]2(c3ccccc3)CCCOCC2)cc1,-1%,0.26

Structure (SMILES),% Inhibition,Z score
COc1ccc(C)c2sc(N(CCCn3ccnc3)C(=O)Cc3ccc(F)cc3)nc12,78%,-7.85
COc1ccc(Oc2c(CN(CC3CC3)C(=O)C3CCCC3)c(-c3ccccc3)nn2C)cc1,3%,-0.32
COc1ccc(CN(Cc2nnn(C)n2)C2CCCCC2)cc1OC,-7%,1.05
Cc1nnc(CN(C)C(=O)N[C@H]2CCc3c2ccc(Cl)c3Cl)s1,-4%,0.8
Cc1noc(COC2CN(C(=O)NCc3ccc4[nH]c(C)c(C)c4c3)C2)n1,-16%,2.33
CC#CC(=O)N1CCC2(CC1)c1ccccc1[C@@H](NC(=O)CC)[C@@H]2OCc1cccnc1,-1%,0.21
CCOC(=O)c1ncn(C2CCCCC2)c1N,37%,-4.22
CC1CCN(C(=O)CCC(N)c2ccccc2)C1C (stereo not given),-13%,1.28
C[C@@H]1CN(CCCNc2ccncn2)C[C@H](C)O1,-5%,0.8
Cc1ncc(S(=O)(=O)N2C[C@@H](C(C)(C)C)c3ccccc32)s1,25%,-3.27
C[C@@H](C1CCN(C)CC1)N(C)S(=O)(=O)c1ccc(Cl)s1,-3%,0.24
Cn1ccnc1[C@@]1(CNC(=O)c2ccc(C(F)(F)F)cc2)NC(=O)NC1=O,-18%,1.97
COC(=O)NCC(=O)N(Cc1cc(F)ccc1F)C1CCCC1,13%,-1.42
O=C(N[C@H]1CCCc2ccccc21)c1ccccc1OCc1ccccc1,-6%,0.94
CCc1noc(C)c1CNC(=O)c1cc(=O)[nH]c2ncn(C)c12,-6%,0.68
CCNC(=O)COc1c(Br)cccc1OC,-16%,2.99
CCCC(O)(CCC)CC(=O)NCc1ccc2c(=O)cc[nH]c2c1,-8%,1.43
Cc1cc(Br)ccc1N(C)C(=O)c1ccn(C)c(=O)c1,-12%,1.33
Cc1c(Cl)cccc1S(=O)(=O)Nc1cnc(N(C)C)c(C(=O)O)c1,-3%,0.25
